These are literature values, as cited in US9499554B2, “Anti-influenza compositions and methods” (priority 2013, dated 2016).

For this data set, the system named is influenza virus. The conditions noted are these: cited from earlier work.

For the molecule `NC(=O)c1nc(F)cnc1O` [T-705, 6-fluoro-3-hydroxy-2-pyrazinecarboxamide], the “antiviral activity against multiple strains of influenza virus infection” value was “potent and broad spectrum antiviral activity”.
